Results as given in the supplement of paper PMC3334620.
In all, about 33,000 sequences were measured (“E-score (-0.5 to 0.5)”: median about -0.053, highest 2% from about 0.37 on). The list shows a part of the results.

The sequences below were run against Hap1 (UniProt P0CE41) (assay: PBM E-score (8-mer binding enrichment) (E-score (-0.5 to 0.5)); higher = stronger / more preferred TF binding; most listed sequences are background and not binding sites). Conditions: protein concentration: 200 nM; construct: GST-DNA-binding domain.
UniProt P0CE41, sequence (P0CE41 whole entry, the tested form may be a part): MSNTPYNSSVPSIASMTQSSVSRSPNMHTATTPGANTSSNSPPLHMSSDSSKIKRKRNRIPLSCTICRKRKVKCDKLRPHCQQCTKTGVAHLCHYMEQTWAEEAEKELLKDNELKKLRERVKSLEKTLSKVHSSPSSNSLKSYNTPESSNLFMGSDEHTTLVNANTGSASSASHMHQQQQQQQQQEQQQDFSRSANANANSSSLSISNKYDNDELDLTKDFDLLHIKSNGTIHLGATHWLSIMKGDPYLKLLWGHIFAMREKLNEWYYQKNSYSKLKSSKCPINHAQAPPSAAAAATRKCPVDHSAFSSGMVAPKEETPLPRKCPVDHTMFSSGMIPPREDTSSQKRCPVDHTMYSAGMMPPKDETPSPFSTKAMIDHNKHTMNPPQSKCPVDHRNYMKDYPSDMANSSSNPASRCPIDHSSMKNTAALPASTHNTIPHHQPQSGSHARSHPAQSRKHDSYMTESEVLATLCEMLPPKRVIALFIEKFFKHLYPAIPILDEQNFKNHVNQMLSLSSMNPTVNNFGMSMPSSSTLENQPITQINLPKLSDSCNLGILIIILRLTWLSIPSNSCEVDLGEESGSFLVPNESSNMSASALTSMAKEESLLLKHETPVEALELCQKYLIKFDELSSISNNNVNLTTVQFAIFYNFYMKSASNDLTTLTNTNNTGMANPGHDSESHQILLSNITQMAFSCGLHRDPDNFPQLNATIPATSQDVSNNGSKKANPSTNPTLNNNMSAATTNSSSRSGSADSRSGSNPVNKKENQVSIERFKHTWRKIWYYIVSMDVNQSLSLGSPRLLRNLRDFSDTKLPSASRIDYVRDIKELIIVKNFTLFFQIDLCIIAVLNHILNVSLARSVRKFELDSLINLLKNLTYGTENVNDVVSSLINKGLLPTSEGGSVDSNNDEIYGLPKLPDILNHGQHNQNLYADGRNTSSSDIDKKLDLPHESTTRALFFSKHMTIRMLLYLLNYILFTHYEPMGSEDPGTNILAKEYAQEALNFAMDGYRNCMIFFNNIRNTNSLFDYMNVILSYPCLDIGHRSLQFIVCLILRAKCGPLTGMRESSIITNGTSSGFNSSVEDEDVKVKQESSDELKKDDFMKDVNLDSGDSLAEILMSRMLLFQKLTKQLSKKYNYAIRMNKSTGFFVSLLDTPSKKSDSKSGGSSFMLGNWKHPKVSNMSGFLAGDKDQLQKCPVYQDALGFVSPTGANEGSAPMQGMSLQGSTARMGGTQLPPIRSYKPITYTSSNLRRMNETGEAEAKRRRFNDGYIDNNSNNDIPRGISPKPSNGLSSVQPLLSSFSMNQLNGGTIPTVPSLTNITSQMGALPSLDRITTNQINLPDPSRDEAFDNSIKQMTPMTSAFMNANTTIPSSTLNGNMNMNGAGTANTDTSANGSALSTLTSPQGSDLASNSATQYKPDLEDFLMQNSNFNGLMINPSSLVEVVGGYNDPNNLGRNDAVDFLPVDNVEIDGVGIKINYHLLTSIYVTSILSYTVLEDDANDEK
Protocol: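 Universal 'all 10-mer' protein binding microarrays (Agilent AMADID 015681) probed with GST-tagged S. cerevisiae TFs (full-length or DBD) made by in vitro transcription/translation (PURExpress), about 100-200 nM. Bound TF was detected with fluorescent anti-GST. Each ungapped 8-mer (which stands for itself and its reverse complement) is scored by the PBM enrichment score (E-score), a modified Wilcoxon-Mann-Whitney statistic from -0.5 to +0.5, computed with the Universal PBM Analysis Suite. Scale: above 0.35 generally sequence-specific binding.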

Sequence	PBM E-score
AGGAGGTG	-0.304
ACAAGCTG	-0.184
CGAGATCC	0.148
AAGCAGTA	-0.262
CACCTAAA	-0.214
CATGGTCA	-0.0446
GCGTAGCC	-0.135
ATCGAGAA	-0.132
AGGCGCAT	0.0322
AGTCACGG	0.181
CTAATTCC	0.349
CACACGCC	0.105
GTCTTCTA	-0.11
CGCTTTGC	0.0331
GGGACCTA	0.116
CGCACACG	0.0946
AGAGTCTA	-0.318
ATTTAAAA	0.0376
GTCAAGAA	-0.178
ATTGTGAC	-0.261
GCAGTTTA	-0.0464
CTGAGGGA	-0.236
GTACGCAA	-0.186
CCCGGCAC	0.119
CCCAAGTA	-0.137

Sequence	PBM E-score
CTAGCAGA	-0.242
AATCAAGG	0.132
AGCACCGC	0.174
AGCTGAAG	-0.245
TCATTCAA	-0.108
GTGTCGGA	0.325
GGAGTGAA	0.0859
TAGAAGCA	-0.336
AGGTGTTG	-0.064
AACCATAA	-0.124
ACCGCACC	0.264
CCCAAACC	0.124
CAATAATA	0.0248
AAGTGGAA	-0.122
CAGCCTTA	-0.0219
CGAACCTC	0.0197
ACTGGGCC	0.0867
AACGGTGC	-0.0225
AAAGCGAC	0.0734
ATAAAAAG	0.0576
GGGAATAA	0.396
CACGGTGC	-0.171
CCATCGCC	0.197
ACGGGGGA	0.163
ACGACCCG	0.141

Sequence	PBM E-score
CCTATACA	-0.276
CGTCCCCA	-0.0642
GGATTTGA	0.1
CTCTGCAC	-0.136
AAAGCACT	-0.0566
AATACGCC	0.105
CCGCTATC	0.31
GACGGTTA	0.108
GAATAATA	0.105
ACAAGGAT	-0.249
CTACGTAC	-0.106
ACGGAACC	0.284
CTGGTGAA	-0.285
CATTATCG	0.0604
ATCGGTCA	0.318
GGCATCAC	-0.021
GGTATCAC	0.0218
GTACAGCA	-0.106
ATACACAT	-0.215
ACAGATAC	0.0656
AGGTTTTC	-0.031
AGCCTAGG	-0.101
ACCTTAAA	-0.0134
AATTCGGT	0.188
GTCACCTA	-0.339

Sequence	PBM E-score
CTGTATAC	-0.27
GTCAGTCA	-0.172
ACTTAATC	-0.129
ACGATTGC	-0.0367
CTGCACCC	0.0641
ATGACGGC	0.0742
CGAGGAAA	0.0529
CTATTTTC	0.0335
GCGCTGAC	-0.021
CATATACA	-0.114
CTAGGTAC	-0.22
ACCGAGCT	0.294
GGATGCCC	-0.0964
ATGGTCAA	-0.23
CATAGTGA	-0.187
CGCAGACA	0.0126
CATCCCAG	-0.153
ATATTCCA	0.0228
AAGGTACA	-0.367
AAAAGTCA	-0.145
CGCTAAAG	0.165
ACTTGTGC	-0.0919
CAAAGAGA	-0.117
AAATCCTC	0.146
ATAACTCC	0.4

Sequence	PBM E-score
TCGTTGAA	-0.271
GCTGGCCC	0.0494
CTTTACAC	-0.0794
AGATATGC	-0.0775
AAGCGTCC	-0.241
CAGCAGAG	-0.284
AATGCATT	-0.0577
ATCCAACG	-0.159
GACGGGAC	0.126
GAATCCAA	0.0528
AAGGAAAC	-0.0226
ACCCAGTG	-0.0754
ACACACTA	-0.165
CGGAGAGA	0.333
CAGGATGG	-0.14
TAGCGATA	0.227
AGGCGAAA	-0.142
AACCATGA	0.04
CAGGTTAC	-0.139
ACCGTCGT	0.0494
CATCTTCC	0.0503
ACATTGGC	-0.123
CACCGGAC	0.417
CGGGCGAA	0.375
GGGCGAAC	0.145

Sequence	PBM E-score
GTCGGTTA	0.273
AAGCGAAC	-0.0502
CGCGCTCA	-0.142
ATACGACC	0.0708
CTGGGCTA	0.0256
CTATTTCA	-0.0144
CGCCAGGA	-0.177
ACGAGCAG	-0.188
AGCGACGG	0.204
AAATCATA	-0.0974
CGCCAGCG	-0.128
TTGTGAAA	-0.219
ACATGATC	-0.0374
AAGGTTTA	-0.217
ACATACCC	0.0317
GCAAAGGA	0.0254
ATCAACTA	-0.115
ATATTCCC	0.331
GAATTGCC	0.124
GACCAACC	-0.0052
AAAGCAGA	-0.0809
CAAGAGGA	-0.352
AAGGGTCA	-0.124
ATCTTCTA	-0.0493
ACGGAAGC	0.204

Sequence	PBM E-score
CACCCTGC	-0.101
GCATTCCC	0.125
TACCTCAA	-0.171
ATTATGCA	-0.13
AAAGCATG	-0.24
CCGGGAAA	0.338
GGGAGGGA	0.0508
CATAAATC	0.115
GATTTGGA	-0.136
GAGTAACA	0.0178
AGTGGACC	-0.0549
AATGGGGC	-0.188
ATGTCCGA	0.463
CGATTTAA	0.0314
CATTAAAC	-0.163
CTGTAACC	0.125
CAGGGATG	-0.0552
GCTCTCCC	-0.09
AAAATATT	-0.0249
TGCAAACA	-0.391
CGAATCGA	0.105
ACTAGGCG	-0.0773
